From a collection of fitness landscapes (doi:10.1126/science.1257360)
The other results are listed elsewhere or left out.

B1: PhoQ; a variant is named by its letters at X, in order, P23837 (parent)
chain: MKKLLRLFFPLSLRVRFLLATAAVVLVLSLAYGMVALIGYSVSFDKTTFRLLRGESNLFYTLAKWENNKLHVELPENIDKQSPTMTLIYDENGQLLWAQRDVPWLMKMIQPDWLKSNGFHEIEADVNDTSLLLSGDHSIQQQLQEVREDDDDAEMTHSVAVNVYPATSRMPKLTIVVVDTIPVELKSSYMVWSWFIYVLSANLLLVIPLLWVAAWWSLRPIEALAKEVRELEEHNRELLNPATTRELTSLVRNLNRLLKSERERYDKYRTTLTDLTHSLKTPLXXLQXXLRSLRSEKMSVSDAEPVMLEQISRISQQIGYYLHRASMRGGTLLSRELHPVAPLLDNLTSALNKVYQRKGVNISLDISPEISFVGEQNDFVEVMGNVLDNACKYCLEFVEISARQTDEHLYIVVEDDGPGIPLSKREVIFDRGQRVDTLRPGQGVGLAVAREITEQYEGKIVAGESMLGGARMEVIFGRQHSAPKDE

Variants of: B1
Test: enrichment ratio after two sorts for PhoP signalling (ratio (wild type AVST 3.29)); higher = more functional
Conditions: with PhoP (E. coli)
ESEF showed an enrichment ratio of at most 0.25.
Work on WEAT yielded an enrichment ratio of at most 0.25.
PSNS was tested, and the enrichment ratio was at most 0.25.
SDTK gave an enrichment ratio of at most 0.25.
LGIT was tested, and the enrichment ratio was at most 0.25.
For SRAA, the enrichment ratio was at most 0.25.
Variant WNYK has an enrichment ratio of at most 0.25.
Variant AFRD has an enrichment ratio of at most 0.25.
Variant EFSF has an enrichment ratio of at most 0.25.
MFKF was tested, and the enrichment ratio was at most 0.25.
For LGML, the enrichment ratio was 6.19.
With FIMW the enrichment ratio was at most 0.25.
Variant VLGF has an enrichment ratio of at most 0.25.
RRMS was tested, and the enrichment ratio was at most 0.25.
Variant HTKV has an enrichment ratio of at most 0.25.
Variant AGHT has an enrichment ratio of at most 0.25.
Work on LVNL yielded an enrichment ratio of at most 0.25.
Work on MEVH yielded an enrichment ratio of 1.05.
Work on IYSF yielded an enrichment ratio of at most 0.25.
LEEG gave an enrichment ratio of at most 0.25.
SDND showed an enrichment ratio of at most 0.25.
YFSY gave an enrichment ratio of at most 0.25.
With VNIL the enrichment ratio was 0.383.
KYDG was tested, and the enrichment ratio was at most 0.25.
WRPH was tested, and the enrichment ratio was at most 0.25.
RRPF was tested, and the enrichment ratio was at most 0.25.
In the case of AVLI, the enrichment ratio is reported as 1.4.
In the case of LPHP, the enrichment ratio is reported as at most 0.25.
With DHRF the enrichment ratio was at most 0.25.
For GDHW, the enrichment ratio was at most 0.25.
YIDL gave an enrichment ratio of at most 0.25.
PTGQ gave an enrichment ratio of at most 0.25.
With YEYY the enrichment ratio was at most 0.25.
TVCE gave an enrichment ratio of 13.5.
With KDTA the enrichment ratio was at most 0.25.
Work on GSHF yielded an enrichment ratio of at most 0.25.
ACFN gave an enrichment ratio of at most 0.25.
In the case of NQYL, the enrichment ratio is reported as at most 0.25.
For DYAM, the enrichment ratio was at most 0.25.
With QYPY the enrichment ratio was at most 0.25.
RTTM showed an enrichment ratio of at most 0.25.
Variant GETA has an enrichment ratio of at most 0.25.
For YRIT, the enrichment ratio was at most 0.25.
In the case of YGCV, the enrichment ratio is reported as 6.54.
WKPK showed an enrichment ratio of at most 0.25.
With QRFQ the enrichment ratio was at most 0.25.
Variant HYLC has an enrichment ratio of at most 0.25.
Variant ERGN has an enrichment ratio of at most 0.25.
FPRQ was tested, and the enrichment ratio was at most 0.25.
TNDS gave an enrichment ratio of at most 0.25.
Variant RHYD has an enrichment ratio of at most 0.25.
For YGFL, the enrichment ratio was at most 0.25.
NLFQ was tested, and the enrichment ratio was at most 0.25.
Work on SSGC yielded an enrichment ratio of 13.8.
Work on PTQN yielded an enrichment ratio of at most 0.25.
For TPFA, the enrichment ratio was at most 0.25.
EYLH was tested, and the enrichment ratio was at most 0.25.
IALV showed an enrichment ratio of 13.1.
RYTE was tested, and the enrichment ratio was 0.475.
Work on VITV yielded an enrichment ratio of at most 0.25.
For IMNH, the enrichment ratio was at most 0.25.
In the case of INNR, the enrichment ratio is reported as at most 0.25.
MIEP gave an enrichment ratio of at most 0.25.
For VSDV, the enrichment ratio was at most 0.25.
Work on GKRC yielded an enrichment ratio of at most 0.25.
For NQDR, the enrichment ratio was at most 0.25.
For IQNY, the enrichment ratio was at most 0.25.
ILWG was tested, and the enrichment ratio was at most 0.25.
GFTL showed an enrichment ratio of at most 0.25.
SLYL showed an enrichment ratio of at most 0.25.
PILK was tested, and the enrichment ratio was at most 0.25.
With YMKW the enrichment ratio was at most 0.25.
For MITT, the enrichment ratio was at most 0.25.
Work on VFTP yielded an enrichment ratio of at most 0.25.
Variant DEHH has an enrichment ratio of at most 0.25.
Work on GDYE yielded an enrichment ratio of at most 0.25.
For TLNN, the enrichment ratio was at most 0.25.
YQTP showed an enrichment ratio of at most 0.25.
Work on WSLT yielded an enrichment ratio of at most 0.25.
For YMSV, the enrichment ratio was at most 0.25.
Variant KMNC has an enrichment ratio of at most 0.25.
YRHK gave an enrichment ratio of at most 0.25.
Work on RYPC yielded an enrichment ratio of at most 0.25.
HEDY was tested, and the enrichment ratio was at most 0.25.
